The full ranking holds about 33,000 sequences; the median of “E-score (-0.5 to 0.5)” is about -0.036, and the highest 2% start at about 0.37. The list shows a part of the results.
Target: T1, Yer064c (UniProt P40041)
T1 sequence: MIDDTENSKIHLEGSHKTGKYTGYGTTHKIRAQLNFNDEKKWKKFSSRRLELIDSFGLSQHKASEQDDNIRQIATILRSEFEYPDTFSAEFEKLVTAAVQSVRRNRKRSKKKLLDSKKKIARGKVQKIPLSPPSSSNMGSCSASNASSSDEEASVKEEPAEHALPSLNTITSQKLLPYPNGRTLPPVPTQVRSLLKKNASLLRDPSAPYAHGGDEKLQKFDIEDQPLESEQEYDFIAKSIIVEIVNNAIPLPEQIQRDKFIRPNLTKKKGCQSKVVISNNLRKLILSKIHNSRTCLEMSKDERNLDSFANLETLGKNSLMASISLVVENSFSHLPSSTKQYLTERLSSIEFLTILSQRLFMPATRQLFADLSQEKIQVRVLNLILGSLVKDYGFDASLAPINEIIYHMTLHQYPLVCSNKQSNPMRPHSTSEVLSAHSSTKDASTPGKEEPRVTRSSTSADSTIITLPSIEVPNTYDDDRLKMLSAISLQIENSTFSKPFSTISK
Assay: PBM E-score (8-mer binding enrichment) (E-score (-0.5 to 0.5)); higher = stronger / more preferred TF binding; most listed sequences are background and not binding sites
Conditions: protein concentration: 200 nM; construct: GST-full length
Method in brief: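 Universal all-10-mer Agilent arrays, double-stranded by primer extension on fresh or once-stripped slides, were probed with about 100-200 nM GST-tagged yeast transcription factors made by PURExpress. Fluorescent anti-GST detected bound protein, and masliner normalised the scans. E-scores from the Universal PBM Analysis Suite were given to each ungapped eight-base word pooled with its reverse complement.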

Point of comparison: CCAACGCA, “PBM E-score” value -0.0399. Against it:
- GCTCTTTA — lower, -0.216
- GCAACCCC — lower, -0.127
- ACTGAGAA — higher, 0.175
- ACGGACTC — higher, 0.173
- ATAAATGG — higher, 0.00546
- CGGGATTA — lower, -0.215
- ATGACGAG — higher, 0.00318
- CGTATCCA — higher, 0.072
- GAATAGTA — lower, -0.0424
- GGATAAGA — higher, 0.018
- AACACGCC — lower, -0.178
- AGTAAATC — higher, 0.184
- AAGATTGA — higher, 0.213
- GAAATGTC — lower, -0.0666
- CGGACAAG — lower, -0.0403
- CACTCCCG — higher, -0.039
- CTAAGAAG — higher, 0.109
- GAGCGACC — lower, -0.221
- CAAACCCA — higher, 0.0343
- ACCAATAG — lower, -0.0874
- CCTCTGCC — lower, -0.243
- AATGCCCG — lower, -0.299
- AAGCACCA — lower, -0.244
- CGAATGTC — lower, -0.0589
- AGTGCTTG — lower, -0.0767
- CTCTCCTA — lower, -0.058
- AACATACG — lower, -0.0525
- ATTTGCCG — lower, -0.0788
- GAAGGACC — lower, -0.173
- GAATAGCC — lower, -0.0409
- CGAGTTTC — lower, -0.127
- ACGGCGTG — lower, -0.0432
- AGTGGTTG — higher, 0.0688
- AATAGGCA — lower, -0.191
- GAGGCTAC — lower, -0.131
- AACAGCGA — lower, -0.059
- ATGAACAA — higher, 0.0309
- AGCTGTAT — higher, -0.0122
- GGACGCGA — higher, 0.0535
- CCGCTAGC — lower, -0.334
- TAGCAACA — higher, -0.0323
- ACCTTACC — higher, -0.0176
- ACGAAGGA — higher, 0.037
- ACTGTAGG — higher, 0.117
- CTTACGTC — lower, -0.0626
- TCATTAAA — higher, 0.263
- AAAGGTCG — lower, -0.0747
- CTTAGTAA — higher, 0.161
- GTTATGGA — lower, -0.119
- TCTTAAAA — higher, 0.0576
- TCCATGCA — lower, -0.253
- AGCACGCT — lower, -0.271
- ACTCTACA — higher, 0.0945
- CACTCCGA — higher, 0.00713
- CGAGCCTC — lower, -0.158
- CCGCAGGA — lower, -0.121
- CGCCGATA — lower, -0.193
- ACGCCTCT — lower, -0.101
- ACGAAGGC — lower, -0.201
- ATCGCGCG — higher, 0.0987
- ACCGAAGC — lower, -0.0648
- AGGCGACC — lower, -0.191
- GATCATCA — higher, 0.142
- ATCGATCA — higher, 0.123
- TCACCTGA — higher, 0.232
- ACAGAAGT — higher, 0.0649
- GCCAGCCC — lower, -0.326
- CCATGGAC — lower, -0.107
- CCGTAAAC — lower, -0.0692
- ATGTGGGA — lower, -0.042
- GAACATTC — lower, -0.103
- GCTGTACA — lower, -0.259
- AATTTGCG — lower, -0.174
- CGAGGGTC — lower, -0.388
- CTTGACAA — higher, 0.113
- GAGGCGAA — lower, -0.0509
- GGCCTGAC — higher, 0.109
- ACATTAGG — lower, -0.143
- ATTCTTTC — higher, 0.0902
- GAGCGAGA — higher, 0.103
- AAGCTCGT — lower, -0.0762
- GACAAGCA — lower, -0.235
- CACTGGAA — lower, -0.0741
- ACTGGAAA — higher, 0.0907
- ACTCGTGC — higher, 0.2
- GAAGTTTA — higher, 0.0547
- AGTCGGCG — higher, 0.299
- GAGGGATC — lower, -0.255
- GACGACTC — higher, 0.442
- CCCAACGA — higher, -0.0153
- ACCTTAGT — higher, 0.318
- TAAGCAGA — higher, -0.0155
- AGACCTCA — higher, 0.0211
- AGGACTCA — higher, 0.468
- AACCTGAC — higher, 0.216
- ACCTGCGG — lower, -0.208
- CGCATGCC — lower, -0.184
- CACGATCA — higher, 0.0855
- AGGTACTC — higher, 0.182
- ATGGCTCA — higher, 0.422
- AATGTCCT — lower, -0.244
- AGCTGAAA — higher, 0.0156
- GTAGGCCA — lower, -0.193
- CAGTGGCG — lower, -0.0546
- AGATGCTC — lower, -0.12
- ACGTGTTG — higher, 0.0745
- CGTCCCAG — lower, -0.19
- CGACATAA — higher, 0.047
- GAAGTTGC — lower, -0.185
- AGCTATAC — lower, -0.119
- ACCGATGG — higher, 0.0577
- CTCGCAGC — higher, 0.131
- GATAACAA — lower, -0.0444
- GATGGCCC — lower, -0.305
- GAAGACTA — higher, 0.444
- GCTACTTA — higher, 0.033
- ATGGCGTA — lower, -0.226
- ACTAACGG — higher, 0.211
- CGCTCGAG — higher, 0.0385
- AGGGTGGC — higher, 0.00884
- CATGGTGA — higher, 0.142
- GCGTCCCC — lower, -0.379
- CTACTCCA — lower, -0.0727
- GACTGAGA — higher, 0.33
- ACTCGCCT — higher, 0.144
- ACCGACCT — lower, -0.234
- CCCTAGTA — lower, -0.167
- CTCCACGC — lower, -0.0833
- CTACCTAA — higher, 0.0677
- GACTCTGC — higher, 0.376
- GGAATGTA — lower, -0.112
- AAAACTAC — higher, -0.00325
- AGCTGGAC — higher, 0.0573
- AAAAGGAA — lower, -0.053
- GGGCCAAC — lower, -0.29
- CTTTGGCA — lower, -0.0822
- AACAGGAT — lower, -0.262
- CCAATGTC — lower, -0.242
- ACCGGACC — lower, -0.151
- CCCAGGGC — lower, -0.275
- GGTCAAAA — higher, 0.0441
- CATGGCTC — higher, 0.337
- CATGTGAA — lower, -0.0895
- CTCCAGAG — lower, -0.0855
- GTGACATA — lower, -0.0541
- AGGACTGG — higher, 0.15
- CCTCCTAG — lower, -0.0737
- GGGTGTAA — lower, -0.0653
- AATTCAAA — higher, 0.139
- ACCAAGGG — lower, -0.0519
- AGGGTGCC — lower, -0.213
- GGTCGCGA — higher, 0.0568
- ATAGTCAA — higher, 0.402
- ACGGACAT — lower, -0.206
- CACAAAGG — lower, -0.149
- AGCAGACA — lower, -0.132
- CCACAGCC — lower, -0.0922
- CCCAGTCC — lower, -0.101
- CCCACTGA — lower, -0.0994
- ATCACAAT — higher, 0.232
- CACGGAAA — higher, 0.0316
- GAGTCCGC — higher, 0.316
- TAGATGGA — lower, -0.0694
- GTAGAATA — higher, -0.0286
- GGACGCAC — higher, 0.0055
- ACGTGACG — lower, -0.176
- CTAGCAAC — lower, -0.125
- TCCACGCA — lower, -0.0968
- ACACGAAT — higher, 0.119
- GTATCGGA — lower, -0.146
- CAGCTCGG — lower, -0.142

Source: the supplement of paper PMC3334620
